{"source": "the supplement of paper PMC11417369", "note": "± gives the standard deviation of the averaged measurements. The list shows a part of the results.", "data": [{"test_system": "PfAP2-G AP2 domain (GST-tagged)", "experiment": "gcPBM binding intensity (ln(normalized median fluorescence intensity)); higher = stronger DNA binding", "how_it_was_run": "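GST-tagged P. falciparum DNA-binding domains produced in E. coli were incubated for 1 h on an Agilent 4 × 180k array of primer-extended double-stranded 36-bp intergenic genomic probes with negative controls. Binding intensity is the highest Masliner-normalised natural-log median intensity across replicate spots of either probe orientation, with bound protein detected by Alexa488 anti-GST antibody at 488 nm.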", "values": [{"sequence": "AGACATTTTTAAGCAAAACATTCATCATCTTATAAT [CACACA_negctrl_site1539]", "gcPBM binding intensity (ln)": "9.7 ± 0.19"}, {"sequence": "ATATTGAATTCCAACACATGCAAAACTTTCGGTTTT [TGCATGCA_site485]", "gcPBM binding intensity (ln)": "9.84 ± 0.12"}, {"sequence": "AACAACTATTAATTTACACACATGTATATATCTTAC [CACACA_site7459]", "gcPBM binding intensity (ln)": "10.06 ± 0.049"}, {"sequence": "TATTAAAAGGTGAGTACACACATATATGCGTATATA [CACACA_site2102]", "gcPBM binding intensity (ln)": "11.5 ± 0.81"}, {"sequence": "CTAACAACCAAACGCACACACACAAAAAAAAAAATA [CACACA_site400]", "gcPBM binding intensity (ln)": "10.3 ± 0.47"}, {"sequence": "TTTGAAATGATATATAAACACACATATATATATATA [CACACA_site9170]", "gcPBM binding intensity (ln)": "10.1 ± 0.42"}, {"sequence": "TAAACAGAAGCACATACACACACTCAAAAAAAAAAA [CACACA_site3051]", "gcPBM binding intensity (ln)": "10.2 ± 0.4"}, {"sequence": "AAAATACATAAACACACACACACACCGATATATATA [CACACA_site9186]", "gcPBM binding intensity (ln)": "9.97 ± 0.15"}, {"sequence": "CACAAACACCCAAACACACACACACCGACATACATA [CACACA_site4410]", "gcPBM binding intensity (ln)": "10.2 ± 0.27"}, {"sequence": "TTTTAAGGTGTGAAGGTGCAAAAAGGTAAATAGGAA", "gcPBM binding intensity (ln)": "10.5 ± 0.35"}, {"sequence": "TCGTGTGTAATATTATATATATATATATAATATATA [TGCATGCA_negctrl_site289]", "gcPBM binding intensity (ln)": "10.1 ± 0.23"}, {"sequence": "AAAAAAAAAAAAGGCACACAAACATATGTAGACATA [CACACA_site2284]", "gcPBM binding intensity (ln)": "10.1 ± 0.042"}, {"sequence": "TCTTTTATATTGTAGAGTACATATTTTCAATATATA [XGTACX_site5586]", "gcPBM binding intensity (ln)": "11.3 ± 0.82"}, {"sequence": "TTCTTTTATAAAAGTAGTACAATTATATTGTAATTA [XGTACX_site2855]", "gcPBM binding intensity (ln)": "11.5 ± 0.94"}, {"sequence": "ATCATAAATTATTATACACACAATACGTGACCTATT [CACACA_site1906]", "gcPBM binding intensity (ln)": "10.5 ± 0.35"}, {"sequence": "AAATTGTCAAAACACGCACACACATATACATAATAA [CACACA_site1743]", "gcPBM binding intensity (ln)": "10.5 ± 0.45"}, {"sequence": "GTGATACGCTATAGGACACACGCTTAATAATTATAA [CACACA_site1694]", "gcPBM binding intensity (ln)": "10.7 ± 0.57"}, {"sequence": "AAATTAACAAACTGTAGTACTAACAATATATACAAA [XGTACX_site1772]", "gcPBM binding intensity (ln)": "11.2 ± 0.76"}, {"sequence": "GGATATTATATAAAGTGTACAAGACAAATATATACA [XGTACX_site8173]", "gcPBM binding intensity (ln)": "11.1 ± 0.69"}, {"sequence": "ATATATCAAGGGAGTGAATGTTATGCATATGAATAT [TGCATGCA_negctrl_site573]", "gcPBM binding intensity (ln)": "9.845 ± 0.021"}, {"sequence": "AATAAATTAAATAAAAATGTTTAACATAAAATATGA [GTGCAC_negctrl_site373]", "gcPBM binding intensity (ln)": "9.725 ± 0.078"}, {"sequence": "AAAAAAAAAAAACACACACACAAAATAAACAAACAA [CACACA_site2721]", "gcPBM binding intensity (ln)": "10.06 ± 0.071"}, {"sequence": "ATTATAATTATCAAGGTGCGTGTATTATAATAAATA [GTGCAC_site9917]", "gcPBM binding intensity (ln)": "10.2 ± 0.19"}, {"sequence": "TAATATAATAATAATTGTACTTTTCATAGTGTAATT [XGTACX_site8152]", "gcPBM binding intensity (ln)": "11.2 ± 0.74"}, {"sequence": "ATATATTTTTTTTTTATTTTATTATTATAATTTATC [XGTACX_negctrl_site16]", "gcPBM binding intensity (ln)": "9.56 ± 0.042"}, {"sequence": "TAATATTATTTTTCAGTGCAATATAACCTTAGAATT [GTGCAC_site9417]", "gcPBM binding intensity (ln)": "9.96 ± 0.18"}, {"sequence": "TTATAATCAATGAATACACACATATATTTAATTAAT [CACACA_site3613]", "gcPBM binding intensity (ln)": "10 ± 0.25"}, {"sequence": "AATTTTCCATAGATTGTGCACAAATTTTTATTTTGT", "gcPBM binding intensity (ln)": "10.46 ± 0.064"}, {"sequence": "AAGAAAAAGACTTCATGAAAAAGAATTTTTTTAATT [TGCATGCA_negctrl_site473]", "gcPBM binding intensity (ln)": "9.61 ± 0.42"}, {"sequence": "TATTCAAAAATATAAACAATGAAACAGTATAATATG [CACACA_negctrl_site1482]", "gcPBM binding intensity (ln)": "9.97 ± 0.071"}, {"sequence": "TATAGTTCTTCTATTTGTACATATATTATTATTTAA [XGTACX_site895]", "gcPBM binding intensity (ln)": "10.9 ± 0.3"}, {"sequence": "ATTTTATTTTTTTGAAGTACGAATTCCGAGAAGAAA [XGTACX_site43]", "gcPBM binding intensity (ln)": "11 ± 0.71"}, {"sequence": "AAACAAAACAACTAAGTGCATAAAAATAAAATAAAT", "gcPBM binding intensity (ln)": "10 ± 0.11"}, {"sequence": "TATGTGTGAAAAAAATGTACATATATATAAATTATA [XGTACX_site7202]", "gcPBM binding intensity (ln)": "11.2 ± 0.67"}, {"sequence": "ATATATATATATAATAGTACATATATTTTGAAAGAT [XGTACX_site5800]", "gcPBM binding intensity (ln)": "10.9 ± 0.58"}, {"sequence": "AACTGTAAAAAATATAAACACACATAGAAATATATA [CACACA_site8002]", "gcPBM binding intensity (ln)": "10.1 ± 0.26"}, {"sequence": "GATATATTTTATATATGTACATACAATGGTAAATAT [XGTACX_site2759]", "gcPBM binding intensity (ln)": "11.2 ± 0.73"}, {"sequence": "TTTTTTTTCTTTTTTTGTACATAATAATATATAAAT [XGTACX_site6778]", "gcPBM binding intensity (ln)": "10.9 ± 0.67"}, {"sequence": "AATTAAAAAAGTAATTAACACACAATAATGTAATGC [CACACA_site9388]", "gcPBM binding intensity (ln)": "10.02 ± 0.049"}, {"sequence": "GTTCTGTAAATACGTGCACACACAAATCACAAATGT [CACACA_site7999]", "gcPBM binding intensity (ln)": "10.8 ± 0.52"}, {"sequence": "AAAGAAATGAAATATACACACATACATATATACATA [CACACA_site9335]", "gcPBM binding intensity (ln)": "9.74 ± 0.16"}, {"sequence": "TAGTTTCAAGTAGGACGTACATATAAAAGGATTTTT [XGTACX_site7136]", "gcPBM binding intensity (ln)": "11.4 ± 0.81"}, {"sequence": "TATATATATATAATTGTGCACATAATTTTAAACCAA", "gcPBM binding intensity (ln)": "10.6 ± 0.38"}, {"sequence": "TATTCTTACAAAAGTAGTACAATCATTCATATTTTT [XGTACX_site631]", "gcPBM binding intensity (ln)": "11.5 ± 0.93"}]}]}
